Results taken from patent publication US20230270706A1, “TRANS-CROCETIN COMPOSITIONS AND TREATMENT REGIMENS” (priority 2020, published 2023).

Experiments:
[1] = in vivo; cited from earlier work
[2] = in vivo
[3] = Phase 2 clinical study of liposomal trans-crocetin: pharmacokinetics; format: in vivo, humans; settings: across different dosing regimens
[4] = up to approximately 1.3 to 150 μmol/L (equivalent to 0.4 to 49 μg/mL); plasma; cited from earlier work

Row | Compound | safety in clinical trials [1] | t1/2 in a mouse PK study [2] | AUC and Cmax across body weights [3] | improvement in diffusion capacity (oxygen) [4] [%]
1 | CC(/C=C/C=C(\C)C(=O)[O-])=C\C=C\C=C(C)\C=C\C=C(/C)C(=O)[O-].[Na+].[Na+] [STC free drug, sodium trans-crocetinate] | no safety concerns | half an hour | – | –
2 | CC(/C=C/C=C(\C)C(=O)O)=C\C=C\C=C(C)\C=C\C=C(/C)C(=O)O [trans-crocetin] | – | – | stable levels of AUC and Cmax across a wide range of body weights | 30
